# Article PMC4336329 (PLoS ONE, 2015)
# About 14,000 (4.5%) of roughly 310,000 compounds showed an effect of 50% or more. Effects have a minus sign here. This is one part of the list.
# Target: human ether-à-go-go-related gene (hERG) potassium channel (human, UniProt Q12809)
# Experiment: primary screen, population patch clamp on CHO cells stably expressing hERG
# 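Note: peak tail current of the secondary pulse compared with the same well before compound.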
# Chain of human ether-à-go-go-related gene (hERG) potassium channel (Q12809 whole entry, looked up): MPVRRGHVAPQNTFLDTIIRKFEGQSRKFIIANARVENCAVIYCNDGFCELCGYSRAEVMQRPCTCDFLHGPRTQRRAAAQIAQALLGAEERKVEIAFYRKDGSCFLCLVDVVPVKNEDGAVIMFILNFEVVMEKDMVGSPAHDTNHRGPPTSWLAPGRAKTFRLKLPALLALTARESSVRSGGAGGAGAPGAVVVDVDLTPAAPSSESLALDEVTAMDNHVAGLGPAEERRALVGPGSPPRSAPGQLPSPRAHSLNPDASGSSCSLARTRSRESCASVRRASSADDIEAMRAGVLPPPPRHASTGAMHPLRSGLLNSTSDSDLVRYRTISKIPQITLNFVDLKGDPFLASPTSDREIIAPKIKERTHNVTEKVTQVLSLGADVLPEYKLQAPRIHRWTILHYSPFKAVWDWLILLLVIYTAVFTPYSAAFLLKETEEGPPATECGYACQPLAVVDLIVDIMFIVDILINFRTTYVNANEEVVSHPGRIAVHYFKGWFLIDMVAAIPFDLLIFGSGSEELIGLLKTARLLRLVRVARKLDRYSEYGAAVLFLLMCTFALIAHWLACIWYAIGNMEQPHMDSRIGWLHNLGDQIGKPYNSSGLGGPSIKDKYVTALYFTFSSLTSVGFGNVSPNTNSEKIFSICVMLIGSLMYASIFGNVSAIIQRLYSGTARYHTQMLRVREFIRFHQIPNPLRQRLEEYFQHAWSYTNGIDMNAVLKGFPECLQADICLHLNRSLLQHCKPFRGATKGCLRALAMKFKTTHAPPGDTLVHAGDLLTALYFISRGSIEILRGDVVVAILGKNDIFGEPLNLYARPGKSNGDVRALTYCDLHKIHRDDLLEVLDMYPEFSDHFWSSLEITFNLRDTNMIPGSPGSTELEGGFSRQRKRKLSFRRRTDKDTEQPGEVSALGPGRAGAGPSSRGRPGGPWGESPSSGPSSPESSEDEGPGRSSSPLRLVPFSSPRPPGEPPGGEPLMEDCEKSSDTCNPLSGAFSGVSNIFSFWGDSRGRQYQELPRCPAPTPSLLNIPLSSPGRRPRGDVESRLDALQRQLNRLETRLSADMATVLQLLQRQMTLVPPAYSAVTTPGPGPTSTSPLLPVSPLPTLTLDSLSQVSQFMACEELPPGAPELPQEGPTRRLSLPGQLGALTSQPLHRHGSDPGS
row,Structure (SMILES),"hERG current change (%, negative = inhibition) at 10uM [%]"
1,CCOC(=O)C(O)(c1ccc(NC(=S)NC(=O)c2ccc(Cl)cc2Cl)c(C)c1)C(F)(F)F (stereo not drawn),27.4
2,CCn1cc(C(=O)Nc2ccc(C)c([N+](=O)[O-])c2)cn1,-4.55
3,COc1cc(OC)cc(-c2c(-c3cccs3)c3cc(-c4ccc(OC)c(F)c4)ccc3n2C)c1,12.3
4,CC1=NN(C(N)=S)C(=O)C1N=Nc1ccccc1C (stereo not drawn),23.9
5,COc1ccccc1C(=O)Nc1ccccc1C(=O)Nc1ccccc1,9.77
6,COc1ccccc1NC(=O)CSc1nnc(NC(=O)c2ccco2)s1,-1.03
7,O=C(COC(=O)C(O)c1ccccc1)NC12CC3CC(CC(C3)C1)C2 (stereo not drawn),-0.0519
8,Cc1cc(NC(=O)c2cnn3c(C(F)(F)F)cc(-c4ccc(Br)cc4)nc23)no1,24.4
9,CCOC(=O)c1ccc(NC(=O)N2CCN(c3ccccc3OC)CC2)cc1,11.4
10,O=C(/C=C/c1ccco1)N(Cc1cccc(Cl)c1)C1CCS(=O)(=O)C1 (stereo not drawn),-10.2
11,Cc1cc(C)cc(COc2ccc3c(C)c(CC(=O)O)c(=O)oc3c2C)c1,-41.4
12,Cc1ccc(S(=O)(=O)Nc2ccc(-c3nnc(SCC#N)n3C)cc2)cc1,-11.3
13,O=C(O)COc1ccccc1/C=N/NC(=O)CSc1nc2ccccc2n1Cc1ccccc1,3.79
14,CCN(CC)CCCN(C(C)=O)c1nc(-c2cc(OC)ccc2OC)cs1.Cl,-65.8
15,COc1ccc(N2C(=O)/C(=C/c3ccc([N+](=O)[O-])cc3)C=C2c2ccccc2)cc1,-4.49
16,C=CCNC(=S)NNC(=O)c1csc(CC)c1,2.41
17,COc1ccc(NC(=O)CN(C)S(=O)(=O)c2cccc3nsnc23)cc1OC,-10.3
18,COc1cc(CC(=O)O)ccc1O,-5.48
19,CCNC(=O)CC1C(=O)N(CC)C(=S)N1NC(=O)c1ccccc1 (stereo not drawn),19.9
20,COC(=O)c1cn[nH]c1NC(=S)Nc1ccc(C)cc1Cl,4.08
21,COC(=O)c1c(NC(=O)CSc2n[nH]c(N)n2)sc(C)c1C,5.79
22,CC(=O)Nc1ccc(Nc2nc(-c3ccccc3)nc3ccccc23)cc1,19.2

row,Structure (SMILES),"hERG current change (%, negative = inhibition) at 10uM [%]"
1,CCN(C(=O)COC(=O)c1ccc(N2C(=O)c3ccccc3C2=O)cc1)C1CCS(=O)(=O)C1 (stereo not drawn),13.1
2,CC(C)C(O)(C#CCN1CCCCC1)C(C)C,-1.16
3,CCc1nc(SCc2ccc(C(=O)OC)o2)c2c(=O)n(C)c(=O)n(C)c2n1,-4.89
4,O=C(NC1C(=O)NNC1c1ccccc1)c1ccc(F)cc1 (stereo not drawn),11.4
5,Cc1ccccc1NC(=O)COC(=O)Cc1ccsc1,12.7
6,Cc1ccc(OCC(=O)Nc2ccc(S(=O)(=O)N3CCCC3)cc2)cc1,15.5
7,CCCN(CCC)CCCNC(=O)C(NS(=O)(=O)c1ccc2c(c1)CCC(=O)N2)c1ccccc1 (stereo not drawn),20.5
8,CC1CCC2(CC1)NC(=O)N(CC(=O)N1CCc3ccccc3C1)C2=O (stereo not drawn),34.7
9,Cc1ccc([N+](=O)[O-])cc1Nc1nc(N2CCOCC2)nc(N2CCOCC2)n1,-13.5
10,CCC(NC(=S)NCc1ccc(F)cc1)c1ccc(C(C)C)cc1 (stereo not drawn),22.4
11,CC(=O)NC(Cc1ccccc1)C(=O)OCC(=O)c1ccc(Br)cc1 (stereo not drawn),17.4
12,CC(C)c1ccc(S(=O)(=O)N2CCN(C(=O)C3CCCC3)CC2)cc1,2.78
13,CNS(=O)(=O)c1cc(NC(=O)c2cnc(SC)n2-c2ccccc2)ccc1C,20.6
14,Clc1cccc(CN2CCC(Cc3ccccc3)CC2)c1,-27.9
15,O=C(c1cnccn1)N1CCCC(N2CCN(c3cccc(Cl)c3)CC2)C1 (stereo not drawn),-18.7
16,CC1CCC(NC(=O)CN2CCCN(Cc3ccc(F)cc3Cl)C2=O)CC1 (stereo not drawn),-6.87
17,CCN(CC)C1CC(=O)N(c2cccc(Cl)c2)C1=O (stereo not drawn),17.2
18,Cc1ccc(-c2nnn(CC(=O)N(CCCO)C(C(=O)NC3CCCC3)c3ccc(Cl)cc3)n2)o1 (stereo not drawn),15.7
19,O=C(Cn1nnc(-c2ccccc2)n1)NCc1ccc2c(c1)OCO2,19.1
20,O=C(Nc1cc(S(=O)(=O)N2CCOCC2)ccc1N1CCCCC1)c1ccccc1,-16.9
21,CC(=O)Nc1cccc(OCc2ccc(S(=O)(=O)Cc3ccccc3)cc2)c1,0.707
22,CCCC1(C(=O)OCC)NC(c2ccco2)C2C(=O)N(C)C(=O)C21 (stereo not drawn),7.55

row,Structure (SMILES),"hERG current change (%, negative = inhibition) at 10uM [%]"
1,COc1ccc2c(c1)CCc1cn3ncc(C#N)c3nc1-2,9.34
2,Cc1noc(NS(=O)(=O)c2ccc(NC(=O)CSc3nc4ccccc4s3)cc2)c1C,-2.99
3,Cc1ccc(NC(=O)CSc2nnc(-c3ccncc3)o2)cc1,18
4,CN(CC(=O)NC1CCCCCC1)S(=O)(=O)c1ccc(F)cc1,8.76
5,Nc1nc(CN2CCN(c3ccc(F)cc3)CC2)nc(N2CCCc3ccccc32)n1,-52.9
6,NC(=O)COc1ccc(C(=O)NCC2(N3CCOCC3)CCCCC2)cc1,6.98
7,O=S(=O)(c1ccc(F)cc1)N1CCN(Cc2cc3c(cc2Br)OCCO3)CC1,6.52
8,CCCCn1c(N)c(N(CCC(C)C)C(=O)c2ccc([N+](=O)[O-])o2)c(=O)[nH]c1=O,0.692
9,COC(=O)c1c[nH]n2c(=O)cc(C)nc12,8.97
10,CCc1nn(CCCN2CCN(c3cccc(Cl)c3)CC2)c(=O)n1CCOc1ccccc1.Cl,-65
11,COc1cc(/C=C(/C#N)c2nc3ccccc3[nH]2)ccc1OCC(=O)Nc1ccccc1C,7.97
12,CCCCc1nnc2c(N(C)S(=O)(=O)c3ccc(C)cc3)nc3ccccc3n12,-30.5
13,O=C(CCN1C(=O)c2ccccc2C1=O)N1CCN(Cc2ccc(Cl)cc2Cl)CC1,-53.4
14,COc1cc2cc(/C=C/C(=O)c3ccco3)c(Cl)nc2cc1OC,13.3
15,O=C(COC(=O)Cc1ccc(Cl)cc1Cl)Nc1ccccc1OC(F)F,5.81
16,Cn1c(=O)c2c(ncn2CC(=O)N2CCN(c3ccc(F)cc3)CC2)n(C)c1=O,-23.4
17,O=C(CCN1CCN(c2ccccc2)CC1)N/N=C/c1ccc([N+](=O)[O-])o1,-73.4
18,Cc1cccc(NC(=O)CN2CCN(C(=O)C3CCC3)CC2)c1C,-31.4
19,CCN(CC)CCC(c1ccc2c(c1)OCO2)c1c(OC)cc(OC)c2ccc(=O)oc12 (stereo not drawn),-46.2
20,CCN1CCN(S(=O)(=O)c2cccs2)CC1,4.98
21,Cc1ccc(S(=O)(=O)CNC(=S)c2cccc(C)c2)cc1,-16.4
22,N#C/C(=C\c1ccc(C#N)cc1)C(=O)c1ccccc1,10.7

row,Structure (SMILES),"hERG current change (%, negative = inhibition) at 10uM [%]"
1,Cl.OCCN1C2=NCCCN2c2ccccc21,5.78
2,CCN(CC)C(=O)c1n[nH]c(=O)c2ccccc12,4
3,COc1ccc(Nc2cc(C(=O)NCCCN3CCN(C)CC3)c3ccccc3n2)cc1OC,1.49
4,CN(CC(=O)Nc1ccc(F)cc1)C(=O)c1cccc(NS(=O)(=O)c2ccccc2)c1,-10.8
5,OCn1ncn(-c2ccccc2)c1=S,20.2
6,O=c1[nH]cc(N=Cc2cc(Cl)cc(Cl)c2O)c(=O)[nH]1,17.5
7,Cc1ccc(SCc2nc(-c3ccccn3)no2)cc1,-22
8,COc1cc2cc(C(=O)N(C)Cc3ccccc3)[nH]c2cc1OC,14.8
9,CCCNC(=O)C(=O)Nc1ccc2c(c1)N(S(=O)(=O)c1cccs1)CCC2,-33.6
10,CN(C)CCN(C(=O)c1ccc(S(=O)(=O)N(C)c2ccccc2)cc1)c1nc2cc3c(cc2s1)OCO3.Cl,-2.57
11,CC1(C)CC(=O)C=C(Nc2ccccc2)C1,11.9
12,Cc1cc(NC(=O)c2ccc(NC(=O)CC(C)C)cc2)no1,-4.16
13,CCOC(=O)c1c(-c2ccccc2)c2cc(OC)ccc2n1CCCN(C)C.Cl,-72.4
14,CCCNS(=O)(=O)c1ccc(OCC(=O)N(C)Cc2ccccc2)cc1,-24.2
15,CCCOc1ccc(C(=O)N/N=C/c2ccc(-c3ccc(S(=O)(=O)Nc4ncccn4)cc3)o2)cc1,-7.38
16,CC(=O)c1cc2c(cc1NC(=O)c1ccc(C)cc1)OCO2,0.974
17,CCOc1ccc(CCNC(=O)COC(=O)c2ccc(S(=O)(=O)N3CCCC3)cc2)cc1OCC,25.7
18,Cc1ccc2nc(SCc3cn4cccnc4n3)[nH]c2c1,-8.52
19,Cc1cccc(N2C(=O)CN(Cc3ccccc3)C2=S)c1,-14.5
20,C=CCn1c2ccccc2c2nnc(SCC(=O)NC(C(=O)OC)C(C)C)nc21 (stereo not drawn),-15.1
21,C=CCc1cccc(/C=N/NC(=O)CCC(=O)Nc2ccc(C)cc2)c1O,10.5
